Results: PubChem BioAssay AID1508623 (National Center for Advancing Translational Sciences (NCATS), 2021)
In all, about 48,000 compounds went through this assay and about 450 (0.94%) were called active. Inconclusive results (about 19%) are left out. The call rests on the fitted dose curve; in most records, active means well fitted inhibition curve with a large enough effect; inconclusive means small, poorly fitted or top-dose-only effect; inactive means no such curve, though single readings can be large or run the other way. This is one part of the list.

assay: Primary qHTS for Identification of Small Molecule Inhibitors of Huntingtin Promoter Activity; settings: HEK293 HTT promoter firefly luciferase reporter (activity 0% = vehicle and -100% = no light), 24 h; series mostly up to 57.5 µM; activity change, negative = inhibition: at the top concentration; further: nearly all actives have a fitted effect of over 50% in size
Summary of the method: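 Firefly luciferase signal from promoter-reporter HEK293 cells was scaled between vehicle (0%) and zero RLU (-100%). Compounds were tested at final concentrations of up to 57.5 uM over 24 h at 37 degrees C. PTC124 at 50 uM final served as control inhibitor.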

Row | Compound | activity change, negative = inhibition
1 | CCCS(=O)(=O)c1ncc(Cl)c(C(=O)Nc2c(C(=O)c3ccccc3)oc3ccccc23)n1 | inactive: -8.5%
2 | CCc1ccc(-n2c(=O)c3ccc(C(=O)NCCc4ccccc4)cc3n(CC(N)=O)c2=O)cc1 | inactive: -23.4%
3 | CCS(=O)(=O)N1CCc2cc(C(=O)Nc3ccc(C)c(Cl)c3)ccc21 | inactive: -7.26%
4 | CCCCOc1ccc(C(=O)NCC2(N3CCN(C)CC3)CCCCC2)cc1 | inactive: -6.39%
5 | O=C(Nc1nnc(S(=O)(=O)N2CCOCC2)s1)c1cccc(F)c1 | inactive: 22.8%
6 | CC(=O)c1cccc(NC(=O)C(Cc2ccccc2)NS(=O)(=O)c2ccc(Br)s2)c1 (stereo not given) | inactive: -4.51%
7 | O=C(Nc1ccc(Cl)cc1)N1CCC(CN2CCCC2)CC1 | inactive: -15.1%
8 | Cc1ccc2c(c1)C(c1ccccc1)N(C(=O)c1ccc(OC(C)C)cc1)CC(=O)N2 (stereo not given) | inactive: -15.9%
9 | Cc1c2cnn(-c3ccccc3)c(=O)c2c(C)n1CC(=O)NCc1ccccc1Br | inactive: -16.8%
10 | Cc1cccc(CCNC(=O)Cn2ncc3c(=O)oc4ccccc4c32)c1 | inactive: -4.78%
11 | COc1ccc(Cn2cc(C(=O)c3ccc(OC)cc3)c(=O)c3cc4c(cc32)OCCO4)cc1 | inactive: -1.24%
12 | CCC(=O)O[C@]1(C(=O)CO)CC[C@H]2[C@@H]3CCC4=CC(=O)CC[C@]4(C)[C@@H]3CC[C@@]21C | inactive: 13%
13 | COc1ccc(OC)c(NC(=O)c2cn3c4c(ccc(Cl)c4c2=O)OC(C)C3)c1 (stereo not given) | inactive: -8.59%
14 | COc1c(Cl)cc(Cl)cc1/C=C(\C#N)c1nc2ccccc2[nH]1 | inactive: 2.39%
15 | CCN(CCCNC(=O)c1nn(-c2ccc(C)cc2)c(=O)c2c1c1ccccc1n2C)c1ccccc1 | inactive: -8.22%
16 | Cc1ccc(C)c(N2CCN(C(=O)CCCn3ncn4c(cc5occc54)c3=O)CC2)c1 | inactive: -33.5%
17 | COc1cccc(CNC(=O)CCS(=O)(=O)c2cc3c(cc2C)NC(=O)CO3)c1 | inactive: -5.86%
18 | CCc1ccc(-n2c(=O)c3c(C)c(C(=O)N(C)C)sc3n(Cc3cccc(C)c3)c2=O)cc1 | inactive: 1.33%
19 | CCOc1ccc(CNC(=O)CCn2nc(C)c3c(C)n(-c4ccccc4)nc3c2=O)cc1 | inactive: -10.9%
20 | CN(C)c1ccc(CNC(=O)CCCN2C(=O)CCn3nc(-c4cccn4C)cc32)cc1 | inactive: 0.166%
21 | Cc1ccc(-n2c(=O)c3c4c(sc3n(Cc3ccccc3F)c2=O)CCC4)cc1C | inactive: -12.4%
22 | Cc1nc(-c2ccc(Cl)cc2)sc1CCNC(=O)c1ccco1 | inactive: 10.5%
23 | COc1cc(-c2nc3sccn3c2Nc2cccc(C)c2)ccc1O | inactive: 13.9%
24 | Cc1ccc(O)c(-c2ccnc3cc(-c4ccc(Cl)cc4)nn23)c1 | inactive: -12.1%

Row | Compound | activity change, negative = inhibition
25 | Cc1coc2cc3oc(=O)c(CC(=O)NCc4ccc(F)cc4)c(C)c3cc12 | inactive: -9.77%
26 | COc1ccccc1OCCCn1c(C2CC(=O)N(c3ccccc3Cl)C2)nc2ccccc21 (stereo not given) | inactive: -12.4%
27 | Cc1ccc(Cn2c(=O)n(Cc3nc(-c4ccccc4)no3)c(=O)c3cc4c(cc32)OCO4)cc1 | inactive: -4.55%
28 | CC(=O)c1cccc(NC(=O)CCc2c(C)nc3c(-c4ccc(F)cc4)c(C)nn3c2C)c1 | inactive: -19.3%
29 | O=C(Nc1ccccc1)N1CCN(C(=O)c2nsc3ccccc23)CC1 | inactive: -12.7%
30 | CCCc1nc2sc3c(N4CCCCC4)ncnc3c2c2c1CCCC2 | inactive: -11.7%
31 | COc1ccc(OC)c(NC(=O)Cn2cc(S(=O)(=O)c3ccccc3)c(=O)c3cc(C)ccc32)c1 | inactive: -10%
32 | Cc1ccc(CCNC(=O)CCn2c(=O)c3cccn3c3ccc(F)cc32)cc1 | inactive: -8.81%
33 | Fc1cccc(F)c1-c1nc(-c2ccncc2)no1 | inactive: 52.3%
34 | O=C(CCn1c(=O)c2cccn2c2ccc(F)cc21)NCc1ccccc1F | inactive: -12%
35 | Cc1ccc(NC(=O)CSc2nc(-c3ccc(F)cc3)cc(C(F)(F)F)c2C#N)cc1 | inactive: -18.8%
36 | Cc1cccc(NC(=O)Cn2c(=O)n(Cc3ccc(C(=O)NCc4ccc5c(c4)OCO5)cc3)c(=O)c3ccccc32)c1 | inactive: -8.03%
37 | CCNC(=O)CC1C(=O)N(c2ccccc2)C(=O)N1Cc1ccc(F)cc1 (stereo not given) | inactive: -8.05%
38 | COc1ccc(NC(=O)Cn2c(=O)oc3cc(S(=O)(=O)NC(C)C)ccc32)cc1OC | inactive: -18.6%
39 | Cc1ccccc1Cn1c(CCCNC(=O)C2CCCCC2)nc2ccccc21 | inactive: -28%
40 | Cc1ccccc1Cn1c(SCc2ccc(C(=O)NCc3cccs3)cc2)nc2ccncc21 | inactive: -21.6%
41 | Cc1cccc(OCc2nnc(SCC(=O)Nc3ccc(C)cc3C)o2)c1 | inactive: -9.15%
42 | COc1ccccc1N1CCN(S(=O)(=O)c2ccc3c(c2)oc(=O)n3C)CC1 | inactive: -9.57%
43 | Cc1nnc(N2CCC(C(=O)NC(C)C)CC2)c2nn(-c3ccc(Cl)cc3)c(C)c12 | inactive: -2.54%
44 | CCN(CCCNC(=O)c1cc2c(=O)[nH]c3ccccc3c2s1)c1ccccc1 | inactive: -13.5%
45 | CCC1CCCCN1S(=O)(=O)c1ccc(NC(=O)c2cc(=O)c3ccccc3o2)cc1 (stereo not given) | inactive: -34.4%
46 | O=S(=O)(c1ccc(-n2cnnn2)cc1)N1CCN(c2ccccc2F)CC1 | inactive: -12.9%
47 | O=C(Nc1nc(-c2ccc(Br)cc2)ns1)c1ccc(F)cc1 | inactive: -6.7%
48 | CC(=O)c1cccc(NC(=O)Cn2c(SCC(=O)Nc3ccc(F)cc3)nc3ccccc32)c1 | inactive: -31.6%

Row | Compound | activity change, negative = inhibition
49 | CCOc1ccc(-n2c(C)nc3c(cnn3-c3ccc(C)cc3)c2=O)cc1 | inactive: -18.1%
50 | COc1ccc(-c2c(C#N)c(SCC(=O)Nc3ccccc3C)nc(C)c2C(=O)Nc2ccccc2)cc1OC | inactive: -19.9%
51 | COCCCNC(=O)CSc1nc(-c2cccc(F)c2)[nH]c1-c1ccccc1 | inactive: -23.2%
52 | O=C(CN1CCN(Cc2ccccc2Cl)C1=O)NCc1ccccc1Cl | inactive: -10.9%
53 | Cn1cc(S(=O)(=O)c2ccccc2)c(=O)c2cc(F)c(N3CCOCC3)cc21 | inactive: -9.71%
54 | N#C/C(=C\c1ccc(Cl)cc1)C(=O)NCC1CCCO1 (stereo not given) | inactive: 9.29%
55 | CC(COc1ccccc1)NC(C)C(O)c1ccc(O)cc1 (stereo not given) | inactive: 5.67%
56 | CCc1cnc2c(c1SCC(=O)Nc1ccc(Cl)cc1)c(=O)n(C)c(=O)n2C | inactive: -18.5%
57 | CCOc1ccc(NC(=O)Cc2coc3ccc(C)cc23)cc1 | inactive: -11.5%
58 | COc1ccc(-c2cc(C(F)F)n3ncc(C(=O)Nc4cc(OC)ccc4OC)c3n2)cc1 | inactive: -0.794%
59 | COc1ccccc1NC(=O)CSc1ccc(-c2sc(C)nc2C)nn1 | inactive: -11.8%
60 | CCC(Nc1ccc(-c2nc(-c3ccco3)no2)cc1[N+](=O)[O-])c1ccccc1 (stereo not given) | inactive: -8.47%
61 | Cc1cccc(-c2nc(CCNC(=O)Cc3ccc(F)cc3)cs2)c1 | inactive: -21%
62 | COc1ccc(C2c3cccn3CCN2S(=O)(=O)c2ccccc2[N+](=O)[O-])cc1OC (stereo not given) | inactive: -17.9%
63 | O=C(NCC(c1ccc2c(c1)OCO2)N1CCOCC1)c1ccccc1F (stereo not given) | inactive: 23.2%
64 | CCc1ccc2occ(CC(=O)Nc3c(C(=O)Nc4ccc(OC)cc4)oc4ccccc34)c2c1 | inactive: 3%
65 | O=C(NCc1ccccc1)c1nnc(Cc2cccc(F)c2)o1 | inactive: -7.02%
66 | Cc1cccn2cc(-c3cccc(NS(=O)(=O)c4ccc(Cl)c(Cl)c4)c3)nc12 | inactive: -7.93%
67 | CC(C)(C)c1ccc(C(O)CCCN2CCC(C(O)(c3ccccc3)c3ccccc3)CC2)cc1 (stereo not given) | inactive: 8.49%
68 | Cc1ccc2nc(Cl)c3cc(C(=O)N(C)C4CCCCC4)sc3c2c1 | inactive: -4.35%
69 | CCn1c(CNC(=O)c2ccc(OC)cc2)nnc1SCC(=O)Nc1cccc(C)c1C | inactive: -1.88%
70 | COc1cccc(Cn2c(=O)n(-c3cccc(Cl)c3C)c(=O)c3c4c(sc32)CN(C(C)=O)CC4)c1 | inactive: -9.42%
71 | CCOC(=O)c1c(C)oc2nc(C)nc(NCC3CCN(Cc4cccc(C)c4)CC3)c12 | inactive: -3.45%
72 | CCOc1ccc(-n2cc(-c3ccccc3)c3c(NC4CCCCC4)ncnc32)cc1 | inactive: -9.59%

Row | Compound | activity change, negative = inhibition
73 | Cc1nn(-c2ccccc2)c(OC(=O)c2ccccc2Cl)c1S(=O)(=O)c1ccccc1 | inactive: 1.19%
74 | COc1ccc2c(c1)c1c(c(=O)n(-c3cccc(Cl)c3)c(=O)n1CC(=O)NCC1CCCO1)n2C (stereo not given) | inactive: -3.17%
75 | CCOc1ccc(NC(=O)CSC2=Nc3ccccc3C3=NC(CCC(=O)NCc4cccs4)C(=O)N23)cc1 (stereo not given) | inactive: -0.976%
76 | CCOc1ccc(-c2nnc(SCC(=O)NCc3ccc(C)cc3)nc2-c2ccc(OCC)c(OC)c2)cc1OC | inactive: -17.9%
77 | COCCNC(=O)Cn1cnc2sc(C)c(S(=O)(=O)N3CCN(c4ccccc4OC)CC3)c2c1=O | inactive: -4.59%
78 | CCc1nn2c(=O)cc(COC(=O)c3ccccc3NC(=O)COc3ccc(F)cc3)nc2s1 | inactive: -4%
79 | CCOC(=O)c1[nH]c(C)c(CCC(=O)Nc2cccc(C(F)(F)F)c2)c1C | inactive: -19.7%
80 | COc1cc(CNCCSc2nnnn2C)ccc1OCc1ccc(F)cc1 | inactive: -2.13%
81 | CC(CNC(=O)c1nnc(Cc2cccc(F)c2)o1)c1ccccc1 (stereo not given) | inactive: -22.3%
82 | COc1ccc(N2CC(NC(=O)C3CC3)CC2=O)cc1 (stereo not given) | inactive: -10.5%
83 | CCC(NC(=O)Nc1ccc(OC)c(OC)c1)c1c(-n2cccc2)sc2c1CCN(C)C2 (stereo not given) | inactive: -13.4%
84 | CC(=O)c1cccc(NC(=O)[C@H](Cc2ccccc2)N2Cc3ccccc3C2=O)c1 | inactive: -3.65%
85 | O=c1oc2ccc3ccccc3c2cc1-c1nnc(Nc2ccc(Cl)cc2Cl)s1 | inactive: -2.04%
86 | CCc1ccc(NC(=O)Cn2c(=O)c(CNc3ccccc3)cc3cc(OC)c(OC)cc32)cc1 | inactive: 1.7%
87 | Cc1cccc(NC(=O)C2CCCN(S(=O)(=O)c3c(C)[nH]c(=O)[nH]c3=O)C2)c1C (stereo not given) | inactive: -15.2%
88 | COc1ccc(-c2nc3ccccc3o2)cc1NC(=O)C(C)(C)Oc1ccc(Br)cc1 | inactive: -16.4%
89 | COc1cccc(N2CCN(C(=O)CCS(=O)(=O)c3ccc4c(c3)CC(=O)N4C)CC2)c1 | inactive: -14.8%
90 | O=C(Cn1c(=O)oc2cc(S(=O)(=O)N3CCCC3)ccc21)NCc1ccc(Cl)cc1 | inactive: -29.2%
91 | CCN(CC)C(=O)Cn1c(=O)n(Cc2ccc(C(=O)NCc3ccc(C)cc3)cc2)c(=O)c2ccccc21 | inactive: -7.34%
92 | Cc1ccc(NC(=O)c2cn3c4c(ccc(Cl)c4c2=O)OC(C)C3)cc1C (stereo not given) | inactive: 0.393%
93 | CCOCCCNC(=O)c1cc2c(=O)n(C)c3ccccc3c2n1C | inactive: -6.55%
94 | O=C(C1CCC(CNS(=O)(=O)c2ccc(Br)s2)CC1)N1CCN(c2ccccc2Cl)CC1 (stereo not given) | inactive: -21.5%
95 | CCOc1cc2sc(N3CCC(C(=O)Nc4ccccc4C(=O)OC)CC3)nc2cc1Br | inactive: 25.5%
